In all, about 33,000 sequences were measured (“E-score (-0.5 to 0.5)”: median about -0.036, highest 2% from about 0.37 on). The list shows a part of the results.
The sequences below were run against T1, Yer064c (UniProt P40041) (assay: PBM E-score (8-mer binding enrichment) (E-score (-0.5 to 0.5)); higher = stronger / more preferred TF binding; most listed sequences are background and not binding sites). Settings: protein concentration: 200 nM; construct: GST-full length.
T1 sequence: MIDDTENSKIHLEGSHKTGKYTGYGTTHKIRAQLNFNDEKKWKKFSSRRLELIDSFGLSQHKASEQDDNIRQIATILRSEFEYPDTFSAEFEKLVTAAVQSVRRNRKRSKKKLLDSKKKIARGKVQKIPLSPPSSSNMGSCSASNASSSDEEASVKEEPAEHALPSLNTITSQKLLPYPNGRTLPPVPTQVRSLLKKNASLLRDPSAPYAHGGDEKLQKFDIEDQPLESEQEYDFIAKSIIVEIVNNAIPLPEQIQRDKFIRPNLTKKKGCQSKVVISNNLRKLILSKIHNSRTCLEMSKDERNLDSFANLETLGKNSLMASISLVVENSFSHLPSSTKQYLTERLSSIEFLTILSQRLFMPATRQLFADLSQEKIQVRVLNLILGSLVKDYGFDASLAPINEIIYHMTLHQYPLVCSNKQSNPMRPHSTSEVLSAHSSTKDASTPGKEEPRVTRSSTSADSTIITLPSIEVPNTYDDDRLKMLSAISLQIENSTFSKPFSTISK
Summary of the method: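 Using PURExpress in vitro transcription/translation, GST-tagged yeast transcription factors were made in full-length or DNA-binding-domain form. These were applied at about 100-200 nM to double-stranded universal all-10-mer Agilent arrays, and bound protein was detected with fluorescent anti-GST. Scans were normalised with masliner before the Universal PBM Analysis Suite assigned E-scores to ungapped eight-base words pooled with their reverse complements.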

| Sequence | PBM E-score |
| --- | --- |
| GTTAGAAA | 0.0139 |
| CCCTTTCG | -0.19 |
| AACTTCAC | 0.0098 |
| AGGCTAGC | -0.127 |
| AGTTCTAG | -0.0139 |
| ATGTAACG | -0.038 |
| AACTGGGG | -0.12 |
| CAGCCAAG | -0.141 |
| ATACTACC | -0.046 |
| AAAGACAC | -0.0007 |
| CGTCAGCC | -0.135 |
| CGAACAAC | 0.00761 |
| ATAATACA | 0.0732 |
| ATAGTCCG | 0.316 |
| GATGGGCC | -0.384 |
| GATGAACC | 0.0652 |
| TGAACACA | 0.0693 |
| GATGGCTA | 0.359 |
| TAAGAGAA | 0.0902 |
| AGTCATAG | 0.482 |
| ATAGGTAC | -0.138 |
| CTTTCGAA | 0.0203 |
| AGACCATG | -0.00754 |
| ACCTAGGG | -0.0507 |
| CTCTACTC | -0.0437 |

| Sequence | PBM E-score |
| --- | --- |
| AAACTAGA | 0.0148 |
| AATTCCCA | -0.163 |
| GTTAGAGA | 0.0539 |
| AGAACTTA | 0.13 |
| CTGCTAAA | -0.141 |
| CGTGGCGC | -0.0516 |
| GCGGGACA | -0.356 |
| AGTTACAT | -0.176 |
| ATATCACA | -0.24 |
| AAACGTAA | 0.0259 |
| AGATGGTA | -0.179 |
| CACGGGTA | 0.213 |
| CAAGGGAC | -0.26 |
| AGCGTCTG | -0.161 |
| ATCGTTCC | -0.0746 |
| TATTCAGA | 0.0473 |
| ACCCTTAG | 0.0167 |
| CTTAGCGC | 0.168 |
| CAGTAAGG | -0.124 |
| AGAACGAC | 0.2 |
| AAACGAAT | 0.0817 |
| GGACCGCC | -0.325 |
| ACCGTGCT | -0.0266 |
| CAGGTATG | 0.047 |
| AGTATTGG | -0.0653 |

| Sequence | PBM E-score |
| --- | --- |
| TCGGATCA | -0.0516 |
| CTCCTGAC | 0.117 |
| CGCTCGAC | -0.105 |
| TACCAATA | -0.0486 |
| AAAAAGCA | 0.0385 |
| GAGTTCAC | 0.204 |
| AAAGGATG | -0.0536 |
| CCACATAG | 0.0537 |
| AAAGTCAC | 0.411 |
| CCCCCTAA | -0.245 |
| TCACTACA | 0.16 |
| GAGTCGGA | 0.395 |
| GGTGCAAC | -0.298 |
| AGCTCGCG | -0.0129 |
| ACGCCGAG | -0.123 |
| AGGACGCG | -0.135 |
| CACGACCG | -0.0955 |
| AAAAGACG | 0.0418 |
| ACGTCTGC | -0.189 |
| ACAAGTTA | -0.268 |
| AGCTTATG | 0.0502 |
| CAGTAGAG | -0.0448 |
| CTGGCAAG | 0.0312 |
| ATTATCTC | -0.0519 |
| TAAGGAAA | -0.183 |

| Sequence | PBM E-score |
| --- | --- |
| AGAGCCGG | -0.185 |
| CGGTTCGA | 0.088 |
| ATTGTTAC | 0.138 |
| GGCTGGTA | -0.158 |
| CCGATTCC | -0.0847 |
| AGTTGTGC | -0.165 |
| CCATCGGG | -0.143 |
| AGGTGCAG | -0.0467 |
| ATACTGGC | -0.00979 |
| GATCCACC | -0.0608 |
| AACGTGGT | 0.0297 |
| GAATTCTC | 0.0192 |
| AGAGCCCA | -0.173 |
| GAAAGCCC | -0.113 |
| ATGAAGAA | 0.138 |
| GCTCATAC | -0.0113 |
| TATGACGA | 0.0856 |
| CTGCGGTC | -0.245 |
| ATCAAGCA | 0.0142 |
| AGTCTATG | 0.131 |
| ATCCATAG | 0.0332 |
| CCTTAAAA | -0.0153 |
| CCAGTATA | -0.0237 |
| ACCTGAAT | 0.162 |
| CCCTGGTC | -0.18 |

| Sequence | PBM E-score |
| --- | --- |
| CCCAATGC | -0.0661 |
| GCGCGGAC | 0.0396 |
| GTAATTTA | 0.0524 |
| CGTTTTAA | 0.0118 |
| ACCAAAGG | -0.18 |
| ATCGAACA | -0.057 |
| CTAACTCA | 0.203 |
| CTAGATTC | -0.0405 |
| ACATTTTA | 0.0524 |
| GCGTTCGA | -0.01 |
| CGGATGGC | -0.0498 |
| ACTCCACA | 0.181 |
| CTACTCAC | 0.22 |
| ATTCGGGC | -0.138 |
| AACGGTTG | -0.142 |
| TCCCTAAA | -0.113 |
| GAGTATAA | 0.212 |
| ACGAATTA | -0.0361 |
| AGACGGAA | 0.026 |
| AAAGTGAA | -0.0781 |
| AAGTGACT | 0.453 |
| CCTGGTGA | 0.0406 |
| CAATCTCC | 0.0118 |
| AACCCGAC | 0.122 |
| CCCGCCAA | -0.29 |

| Sequence | PBM E-score |
| --- | --- |
| GGCGCAAA | -0.102 |
| AGCCCAAA | 0.141 |
| GCCAGAGC | -0.274 |
| CGGGCGGC | -0.28 |
| ACAGCAGT | -0.0762 |
| AGAGGGAC | -0.0799 |
| CGTGGGTC | 0.0625 |
| AAACTCAA | 0.149 |
| CGAAGCGA | 0.0234 |
| ATGTTTCC | -0.149 |
| AAAATGGA | 0.113 |
| CAGTCAGC | 0.406 |
| CTTCAAAA | 0.113 |
| CATGTACG | -0.0155 |
| ACTCAATA | 0.315 |
| GAATCGAA | 0.124 |
| GACCGACA | -0.0833 |
| GCAATAAC | -0.142 |
| GCTTTATA | -0.21 |
| AATCGTAC | 0.109 |
| AATAGGAC | -0.0659 |
| ATAGTATA | -0.186 |
| CAGCGTTC | -0.0385 |
| GCATGGAA | -0.169 |
| AATGTATA | 0.022 |

| Sequence | PBM E-score |
| --- | --- |
| ACTGGACA | 0.0574 |
| ACTACTCT | 0.239 |
| GACCGAGC | -0.216 |
| ACGTGACA | -0.138 |
| AGAAACCT | -0.0388 |
| AGCGTCTA | -0.112 |
| GTCCGTCA | -0.00848 |
| ACACCGAA | -0.00535 |
| TACAACTA | 0.0263 |
| AGCAGCAC | -0.202 |
| ATGAAACA | 0.0318 |
| CTGTCGTC | -0.139 |
| CTGCTGAA | -0.0226 |
| AGGGGTCG | -0.179 |
| GACCAGCC | -0.238 |
| AACACTAT | 0.119 |
| AGTGTCAC | -0.0571 |
| CCGTGCAA | -0.0662 |
| AGAGTAAG | 0.0595 |
| GGATGACC | 0.114 |
| TGAGACAA | 0.0625 |
| AAGGCACT | -0.175 |
